# Where “and” joins values, the source holds several entries; their conditions need not be identical. Equal entries are not always repeated. Inconclusive means that the source gave no clear call. Such entries were picked first, then a sample of the others. For some of these results: Potencies of inconclusive entries are doubtful fits and often do not repeat. Calls of active or inactive are those of the source. Unless noted, the call rests on the fitted dose curve; in most records, active means well fitted curve in the direction sought with a large enough effect in the repeat runs; inconclusive means weak or mixed curves; inactive means no such curve, though single readings can be large; an effect the other way counts as inactive or inconclusive.
# Columns and labels:
# [1] = molecular target: Progesterone receptor (Homo sapiens) (UniProt P06401); test: qHTS assay to identify small molecule antagonists of the progesterone receptor (PR) signaling pathway (AID 1346795; active means well fitted inhibition curve with a large enough effect in the signal ratio in the repeat runs, not every such curve was filed as active; inconclusive means weak or mixed curves; the % refers to the signal ratio; further: potency means the concentration at half of the fitted maximal effect); details: PR-UAS-bla HEK293T, beta-lactamase FRET ratio, 16 h
# How it was run: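 Antagonist mode with agonist R5020 at 1 nM final and 16 hr incubation at 37C. Reporter was beta-lactamase driven by UAS in HEK293T (PR-UAS-bla), 2% charcoal-stripped serum; signal from LiveBLAzer FRET substrate, 2 hr at room temperature.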
# [2] = qHTS assay to identify small molecule antagonists of the progesterone receptor (PR) signaling pathway - cell viability counter screen (AID 1346798); further: nearly all actives have a fitted effect of over 50% in size; further: potency means the concentration at half of the fitted maximal effect
# How it was run: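 Cytotoxicity read as CellTiter-Glo luminescence (30 min, room temperature) in the same wells as the beta-lactamase readout. HEK293T PR-UAS-bla cells in charcoal-stripped 2% FBS received compound and R5020, then 16 h at 37C, 5% CO2.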
# [3] = qHTS assay to identify small molecule agonists of the progesterone receptor (PR) signaling pathway - cell viability counter screen (AID 1346799; calls by dose curve; further: nearly all actives have a fitted effect of over 45% in size; further: potency means the concentration at half of the fitted maximal effect)
# How it was run: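 Cytotoxicity measured by CellTiter-Glo luminescence (30 min, RT) in the same wells as the PR beta-lactamase agonist read. Those HEK293T cells had 16 h compound treatment at 37 C in 2% charcoal-stripped FBS medium.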
# [4] = qHTS assay to identify small molecule antagonists of the TGF-beta/Smad signaling pathway - cell viability counter screen (AID 1346824); further: nearly all actives have a fitted effect of over 50% in size
# How it was run: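 SBE-bla HEK 293T cells were plated overnight at 37 C, then given compounds in DMSO plus TGF-beta1 (added as 0.25 ng/mL solution) for 5 hr. After the bla read, CellTiter-Glo was added to the same wells and luminescence read after 30 min at room temperature.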
# [5] = qHTS assay to identify small molecule agonists of the TGF-beta/Smad signaling pathway - cell viability counter screen (AID 1346829); further: nearly all actives have a fitted effect of over 45% in size; further: potency means the concentration at half of the fitted maximal effect
# How it was run: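 Cytotoxicity counter screen: CellTiter-Glo luminescence (30 min, room temperature) measured in the SBE-bla HEK 293T reporter wells after 5 hr compound treatment at 37 C and the 2 hr substrate step.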
# [6] = qHTS assay to identify small molecule agonists of the TGF-beta/Smad signaling pathway (AID 1346859; active means well fitted activation curve with a large enough effect in the signal ratio in the repeat runs, not every such curve was filed as active; inconclusive means weak or mixed curves; the % refers to the signal ratio; further: potency means the concentration at half of the fitted maximal effect); details: SBE-bla HEK293T, TGF-beta/Smad beta-lactamase reporter, 5 h; activation: at 76.8 µM (top of the series) unless noted
# How it was run: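 Fluorescence (ex 405 nm; em 460 and 530 nm) was read 2 h after LiveBLAzer FRET substrate at RT. The preceding compound treatment of overnight-plated SBE-bla HEK293T cells lasted 5 h at 37 C.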
# [7] = activity change, negative = inhibition: at 92.4 µM (top of the series) unless noted
# On the % scale 0 is the no-effect control and ±100 the full control effect; tags describe the fitted curve by direction and shape or compound fluorescence and quenching.
# UniProt P06401, sequence (P06401 whole entry, looked up): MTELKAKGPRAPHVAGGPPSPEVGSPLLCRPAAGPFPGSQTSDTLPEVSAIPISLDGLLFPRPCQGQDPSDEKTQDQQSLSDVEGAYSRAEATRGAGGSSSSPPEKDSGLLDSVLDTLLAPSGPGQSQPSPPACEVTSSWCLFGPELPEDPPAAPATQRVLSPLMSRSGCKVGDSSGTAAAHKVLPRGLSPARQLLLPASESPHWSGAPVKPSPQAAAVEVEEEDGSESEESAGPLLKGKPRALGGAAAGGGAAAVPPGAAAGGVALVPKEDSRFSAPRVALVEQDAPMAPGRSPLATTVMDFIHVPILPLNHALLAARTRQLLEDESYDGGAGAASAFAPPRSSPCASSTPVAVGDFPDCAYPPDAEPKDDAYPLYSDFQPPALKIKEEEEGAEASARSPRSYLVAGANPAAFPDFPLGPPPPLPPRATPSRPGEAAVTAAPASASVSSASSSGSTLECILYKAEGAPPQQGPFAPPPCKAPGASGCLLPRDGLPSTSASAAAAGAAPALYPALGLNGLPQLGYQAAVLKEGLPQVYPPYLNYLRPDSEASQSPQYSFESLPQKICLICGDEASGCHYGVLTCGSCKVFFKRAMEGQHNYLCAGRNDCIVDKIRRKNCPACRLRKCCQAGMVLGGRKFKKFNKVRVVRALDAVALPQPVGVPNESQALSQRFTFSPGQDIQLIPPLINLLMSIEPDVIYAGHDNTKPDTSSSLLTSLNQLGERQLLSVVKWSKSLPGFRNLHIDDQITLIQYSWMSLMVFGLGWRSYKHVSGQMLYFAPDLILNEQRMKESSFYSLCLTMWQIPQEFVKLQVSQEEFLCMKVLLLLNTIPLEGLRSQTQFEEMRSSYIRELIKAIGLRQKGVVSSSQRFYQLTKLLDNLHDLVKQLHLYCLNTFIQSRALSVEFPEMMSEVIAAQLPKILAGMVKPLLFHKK
structure (smiles),measurement,setting,value
CCO[C@@H]1O[C@H](C(COCc2ccccc2)OCc2ccccc2)[C@H](OCc2ccccc2)[C@H]1O (stereo partly drawn),Potency,[1]; [7],active: 26.6 µM
same,Potency,[2],"inconclusive: 33.5 µM [cytotoxic, single point]"
CNCC[C@H](Oc1cccc2ccccc12)c1cccs1,Potency,[1]; [7],"inconclusive: 33.5 µM [falling, single point]"
same,Potency,[2],active: 23.7 µM
same,Potency,[3],active: 21.1 µM
CC(=O)NC(Cc1ccccc1)C(=O)O (stereo not drawn),Potency,[1]; [7],"inconclusive: 18.8 µM [falling, full curve, poor fit]"
same,Potency,[2],inactive
same,Potency,[3],inactive
CN(C)CCCN(C)CCCN(C)C,Potency,[1]; [7],"inconclusive: 24.3 µM [falling, single point]"
same,Potency,[2],"inconclusive: 24.3 µM [rising, partial curve, poor fit]"
Nc1ccccc1Nc1ccccc1,Potency,[1]; [7],"inconclusive: 61.3 µM [rising, single point]"
same,Potency,[2],"inconclusive: 68.8 µM [cytotoxic, single point]"
Cc1occc1S,Potency,[1]; [7],inactive
same,Potency,[2],"inconclusive: 2.17 µM [rising, partial curve, poor fit]"
O=c1[nH]nc(-c2ccc([N+](=O)[O-])o2)o1,Potency,[1]; [7],inactive
same,Potency,[2],inactive
CCCCC(CC)COC(C)=O (stereo not drawn),Potency,[1]; [7],inactive
same,Potency,[2],"inconclusive: 21.7 µM [cytotoxic, partial curve, poor fit]"
CC(=O)/C=C/C1=C(C)CCCC1(C)C,"activity change, negative = inhibition",[1]; [7],inconclusive: -34.2%
same,"activity change, negative = inhibition",[1]; at 92.4 µM (top of the series),inactive: -3.86% and inactive: -15.8%
same,Potency,[2],"inconclusive: 68.6 µM [cytotoxic, partial curve, poor fit]"
COc1cc(C(C)C)c2c(c1)S(=O)(=O)N(COc1cc(=O)n3cccc(OCCN4CCCCC4)c3n1)C2=O,"activity change, negative = inhibition",[1]; [7],inconclusive: 13.1% [at 18.9 µM]
same,Potency,[2],"inconclusive: 14.6 µM [rising, single point]"
O=CC=C(c1ccccc1)c1ccccc1,Potency,[1]; [7],active: 27.5 µM
same,Potency,[2],active: 61.6 µM
same,Potency,[3],inconclusive: 69.1 µM [cytotoxic]
Oc1cccc(Nc2ccccc2)c1,Potency,[1]; [7],active: 20.2 µM
same,Potency,[2],inconclusive: 71.5 µM
same,Potency,[3],"inconclusive: 56.8 µM [rising, partial curve]"
CN1CCC(=C2c3ccccc3CCc3sccc32)CC1,Potency,[1]; [7],inconclusive: 26.6 µM
same,Potency,[2],"inconclusive: 2.98 µM [cytotoxic, single point]"
same,Potency,[3],active: 15 µM
O=CCCc1ccccc1,Potency,[1]; [7],inactive
same,Potency,[2],"inconclusive: 27.3 µM [rising, single point]"
CCOC(=O)NCCOc1ccc(Oc2ccccc2)cc1,Potency,[1]; [7],active: 17.2 µM
same,Potency,[2],inconclusive: 9.69 µM
same,Potency,[3],"inconclusive: 21.7 µM [rising, partial curve]"
COC(=O)CCC(=O)OC,Potency,[1]; [7],"inconclusive: 7.91 µM [rising, partial curve, poor fit]"
same,"activity change, negative = inhibition",[1]; [7],inconclusive: 5.72%
CCC(C)n1ncn(-c2ccc(N3CCN(c4ccc(OC[C@H]5CO[C@](Cn6cncn6)(c6ccc(Cl)cc6Cl)O5)cc4)CC3)cc2)c1=O (stereo partly drawn),Potency,[1]; [7],inactive
same,Potency,[2],"inconclusive: 2.98 µM [rising, full curve]"
same,Potency,[3],"inconclusive: 2.98 µM [rising, full curve]"
COc1ccccc1O,"activity change, negative = inhibition",[1]; [7],inconclusive: 13%
same,"activity change, negative = inhibition",[1]; at 92.4 µM (top of the series),inactive: -0.146% and inactive: 6.76%
same,Potency,[3],"inconclusive: 54.8 µM [cytotoxic, partial curve, poor fit]"
same,Potency,[4],inactive
same,Potency,[5],"inconclusive: 0.156 µM [cytotoxic, partial curve, poor fit]"
CCCCCOc1ccccc1/C(=C\SC)n1ccnc1,Potency,[1]; [7],active: 3.76 µM
same,Potency,[2],active: 5.31 µM
same,Potency,[3],active: 7.5 µM
CC(C)c1ccc2ncccc2c1,"activity change, negative = inhibition",[1]; [7],inconclusive: 7.61%
same,Potency,[2],inactive
same,Potency,[3],inactive
O=P(O)(O)C(O)(Cc1cccnc1)P(=O)(O)O,Potency,[1]; [7],"inconclusive: 18.8 µM [falling, partial curve, poor fit]"
same,Potency,[2],"inconclusive: 10.6 µM [rising, partial curve, poor fit]"
O=C=Nc1ccc(Cc2ccc(N=C=O)cc2)cc1,Potency,[1]; [7],"inconclusive: 60.1 µM [falling, partial curve]"
same,"activity change, negative = inhibition",[1]; [7],inconclusive: -22.2% [at 42.5 µM]
same,Potency,[5],inactive
C=CC(=C)CCC=C(C)C,Potency,[1]; [7],"inconclusive: 68.6 µM [falling, single point]"
same,Potency,[2],active: 54.5 µM
same,Potency,[3],"inconclusive: 68.6 µM [cytotoxic, single point]"
CC(C)Nc1cccnc1N1CCN(C(=O)c2cc3cc(NS(C)(=O)=O)ccc3[nH]2)CC1,Potency,[1]; [7],"inconclusive: 33.5 µM [rising, single point]"
same,Potency,[2],"inconclusive: 13.3 µM [cytotoxic, single point]"
C=C(C)C(=O)OC(C)C,"activity change, negative = inhibition",[1]; [7],inconclusive: -35%
same,Potency,[2],"inconclusive: 61.3 µM [cytotoxic, single point]"
O=C1Nc2cc(Cl)ccc2Oc2ccccc21,Potency,[1]; [7],"inconclusive: 9.44 µM [rising, partial curve]"
same,Potency,[2],"inconclusive: 11.9 µM [cytotoxic, single point]"
same,Potency,[3],"inconclusive: 0.298 µM [cytotoxic, single point]"
Cc1c(C)c2c(c(C)c1O)CC[C@@](C)(CCC[C@H](C)CCC[C@H](C)CCCC(C)C)O2,Potency,[1]; [7],inactive
same,Potency,[2],inactive
CCOC(=O)N1CCC(n2c(=O)[nH]c3cc(Cl)ccc32)CC1,"activity change, negative = inhibition",[1]; [7],inconclusive: -32.5% [at 42.5 µM]
same,Potency,[2],"inconclusive: 10.6 µM [rising, partial curve]"
same,Potency,[3],"inconclusive: 10.6 µM [rising, partial curve]"
O=Cc1ccc(F)c(Br)c1,Potency,[1]; [7],inactive
same,Potency,[2],"inconclusive: 0.969 µM [cytotoxic, single point]"
same,Potency,[3],inactive
CCCCc1cc2ccccc2c(OCCN(C)C)n1,"activity change, negative = inhibition",[1]; [7],inconclusive: -19.8% [at 42.5 µM]
same,Potency,[2],"inconclusive: 26.6 µM [cytotoxic, partial curve, poor fit]"
CCCCCCCCOc1ccc(C(=O)c2ccccc2)c(O)c1,Potency,[1]; [7],inconclusive: 68.6 µM
same,"activity change, negative = inhibition",[1]; [7],inconclusive: 7.65%
same,Potency,[2],inactive
NC(=O)c1ncn([C@@H]2O[C@H](CO)[C@@H](O)[C@H]2O)n1,"activity change, negative = inhibition",[1]; [7],inconclusive: -28.1%
same,"activity change, negative = inhibition",[1]; at 42.5 µM (top of the series),inactive: -12.6%
same,Potency,[2],"inconclusive: 32.3 µM [cytotoxic, partial curve] and inconclusive: 26.6 µM [cytotoxic, partial curve, poor fit]"
same,Potency,[3],"inconclusive: 28.8 µM [cytotoxic, partial curve] and inconclusive: 13.3 µM [cytotoxic, full curve, poor fit]"
C(=C/c1ccccc1)/c1ccccc1,Potency,[1]; [7],inactive
same,Potency,[2],inactive
Cc1cc(O)c2c(c1)C(=O)c1cc(O)cc(O)c1C2=O,Potency,[1]; [7],active: 29.9 µM and active: 27.3 µM
same,Potency,[2],"inconclusive: 27.3 µM [rising, single point]"
CC(C)OC=O,"activity change, negative = inhibition",[1]; [7],inconclusive: -26.8%
same,Potency,[2],inconclusive: 72.9 µM [cytotoxic]
Cc1oc(-c2ccccc2)nc1CCOc1cccc2c1ccn2CCC(=O)O,Potency,[1]; [7],"inconclusive: 54.5 µM [falling, partial curve]"
same,Potency,[2],"inconclusive: 12.2 µM [rising, full curve]"
same,Potency,[3],"inconclusive: 17.2 µM [rising, full curve]"
same,Potency,[6],"inconclusive: 30.9 µM [rising, partial curve]"
O=C(O)Cn1c(C(=O)Nc2nc(-c3ccccc3Cl)cs2)cc2ccccc21,Potency,[1]; [7],"inconclusive: 29.8 µM [falling, single point]"
same,Potency,[2],inactive
same,Potency,[3],"inconclusive: 6.68 µM [cytotoxic, full curve]"
same,Potency,[6],"inconclusive: 19 µM [rising, partial curve]"
Cc1cc(C)cc(OCC2CNC(=O)O2)c1 (stereo not drawn),Potency,[1]; [7],inactive
same,Potency,[3],inactive
Oc1ccc(Cl)cc1Sc1cc(Cl)ccc1O,Potency,[1]; [7],active: 7.68 µM and active: 9.44 µM
same,Potency,[2],"active: 54.4 µM and inconclusive: 29.8 µM [cytotoxic, single point]"
same,Potency,[3],"inconclusive: 48.5 µM [cytotoxic, partial curve, poor fit]"
same,Potency,[5],"inconclusive: 24.5 µM [cytotoxic, partial curve]"
OCCN1CCN(CCCN2c3ccccc3Sc3ccc(C(F)(F)F)cc32)CC1,Potency,[1]; [7],"inconclusive: 3.35 µM [falling, single point]"
same,Potency,[2],"inconclusive: 18.8 µM [cytotoxic, partial curve, poor fit]"
same,Potency,[3],active: 10.6 µM
CC1(C)CCC[C@]2(C)[C@H]3CC(=O)O[C@]3(C)CC[C@@H]12,Potency,[1]; [7],"inconclusive: 24.3 µM [rising, full curve]"
same,Potency,[2],"inconclusive: 6.86 µM [cytotoxic, single point]"
same,Potency,[6],"inconclusive: 54.9 µM [rising, single point]"
COc1cccc2c1C(=O)c1c(O)c3c(c(O)c1C2=O)C[C@@](O)(C(C)=O)C[C@@H]3O[C@H]1C[C@H](N)[C@H](O)[C@H](C)O1,Potency,[1]; [7],inconclusive: 2.18 µM [full curve] and inconclusive: 2.37 µM [full curve]
same,Potency,[2],"inconclusive: 77.4 µM [cytotoxic, partial curve, poor fit]"
same,Potency,[3],"inconclusive: 6.9 µM [rising, full curve, poor fit]"
same,Potency,[6],"inconclusive: 6.2 µM [rising, partial curve]"
same,activation,[6],inconclusive: -3.15% [at 35.3 µM]
C(=C(c1ccccc1)c1ccccc1)c1ccccc1,Potency,[1]; [7],active: 12.2 µM
same,Potency,[3],"inconclusive: 9.69 µM [rising, partial curve]"
